Measurements published in PubChem BioAssay AID2147 (National Center for Advancing Translational Sciences (NCATS), 2009).
Hit rate of the full screen: of about 230,000 compounds, about 3,600 (1.6%) were called active. The inconclusive results got no clear call from the source; some entries with a clear call stand among them for comparison. Calls follow the shape of the dose curve; as a rule, active = well fitted inhibition curve with a large enough effect (not every such curve was filed as active); inconclusive = small, poorly fitted or top-dose-only effect, or another doubt; inactive = no such curve, though single readings can be large or run the other way. Potencies beside an inconclusive call are fits to weak or partial responses and may not hold up.

Target: Lysine-specific demethylase 4E (Homo sapiens) (UniProt B2RXH2)
Chain of UniProt B2RXH2 (B2RXH2 whole entry, looked up, the tested form may be a part): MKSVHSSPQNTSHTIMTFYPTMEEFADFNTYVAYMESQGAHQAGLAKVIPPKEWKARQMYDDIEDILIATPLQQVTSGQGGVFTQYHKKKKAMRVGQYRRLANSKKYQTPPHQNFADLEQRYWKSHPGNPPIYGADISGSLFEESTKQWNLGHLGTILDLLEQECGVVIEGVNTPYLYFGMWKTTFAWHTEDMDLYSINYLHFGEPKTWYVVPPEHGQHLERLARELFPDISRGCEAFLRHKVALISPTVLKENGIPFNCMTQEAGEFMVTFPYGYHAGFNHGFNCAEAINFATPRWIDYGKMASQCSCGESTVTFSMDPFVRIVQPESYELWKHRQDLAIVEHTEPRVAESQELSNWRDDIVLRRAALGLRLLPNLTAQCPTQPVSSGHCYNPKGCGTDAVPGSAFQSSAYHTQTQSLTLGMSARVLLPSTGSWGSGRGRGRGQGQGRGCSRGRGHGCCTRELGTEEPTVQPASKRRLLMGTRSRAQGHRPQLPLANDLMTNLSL
Test: qHTS Assay for Inhibitors of Human Jumonji Domain Containing 2E (JMJD2E)
Conditions: JMJD2E catalytic domain, FDH-coupled NADH fluorescence (FDH is formaldehyde dehydrogenase); series mostly up to 57.1 µM
Also: nearly all actives have a fitted effect of over 50% in size.
Potency is read from the fitted curve at half-maximal effect; tags tell the direction and shape of the fitted curve.

SMILES	Potency
O=C(CSc1ccc2c(c1)OCCO2)NCc1ccco1	inactive
Cc1cc(C(=O)CSc2nnc(-c3ccco3)o2)c(C)n1CC1COc2ccccc2O1 (configuration not stated)	inconclusive: 22.4 µM [inhibitor, single point]
NC(=O)Nc1cccc2ccccc12	inconclusive: 28.2 µM [inhibitor, partial curve]
CCOC(=O)C(=CNc1cc(C(F)(F)F)ccc1N1CCOCC1)C(=O)OCC	inconclusive: 35.5 µM [inhibitor, single point]
CCOc1ccc(NS(=O)(=O)c2ccc3[nH]c(=O)cc(C(=O)O)c3c2)cc1	inactive
O=C(CN1CCSCC1)N/N=C/c1cccc(Cl)c1	inconclusive: 31.6 µM [inhibitor, single point]
CCN(CC)S(=O)(=O)c1ccc2c(c1)nc(SCC(N)=O)n2-c1ccc(OC)cc1	inactive
CC(=O)Nc1ccc(Cl)cc1C1COC(=O)C1=N (configuration not stated)	inconclusive: 12.6 µM [inhibitor, partial curve]
CCN(CC)c1ccc(/C=C(/C#N)C(=O)NC(C)C)o1	inconclusive: 25.1 µM [inhibitor, single point]
O=C1CCCC/C1=C\Nc1ccc(O)cc1	inconclusive: 0.708 µM [inhibitor, full curve]
CCCC(=O)Nc1ccc2oc(-c3ccncc3)nc2c1	inconclusive: 35.5 µM [inhibitor, partial curve]
Clc1cccc(CSc2ccc(-c3ccco3)nn2)c1	inactive
COc1cc(/C=N/Nc2ccc(C(F)(F)F)cn2)ccc1O	inconclusive: 28.2 µM [inhibitor, single point]
N[C@@H](Cn1cc(F)c(=O)[nH]c1=O)C(=O)O	inconclusive: 35.5 µM [inhibitor, partial curve, poor fit]
CC(=O)c1cn(CC(=O)NCc2cccnc2)c2ccccc12	inconclusive: 39.8 µM [inhibitor, single point]
O=C(Nc1cccc(Cl)c1)ON=C1c2ccccc2-c2ccccc21	inactive
COc1cc(/C=N/NC(=O)CCOc2ccccc2C)cc(Br)c1O	inconclusive: 28.2 µM [inhibitor, partial curve]
COC1=C/C(=C/c2c(O)c(C#N)c3ccccn23)C=CC1=O	inconclusive: 31.6 µM [inhibitor, partial curve]
Cc1cccc2nc(-c3cccnc3)c(NCCC(C)C)n12	inconclusive: 28.2 µM [inhibitor, partial curve]
CCC(C)NCCOCCOc1ccc(Br)cc1 (configuration not stated)	inconclusive: 31.6 µM [inhibitor, single point]
Cc1ccc(-c2nc(N)n(C(=O)Cc3ccccc3)n2)cc1	inconclusive: 22.4 µM [inhibitor, single point]
COc1cc(NC(=O)C2CCCN(S(=O)(=O)c3cccc4nsnc34)C2)cc(OC)c1 (configuration not stated)	inactive
Nc1ccccc1SC1CC(=O)N(c2ccc3c(c2)OCO3)C1=O (configuration not stated)	inactive
O=C(O)C1CCCN1S(=O)(=O)c1ccc2ccccc2c1 (configuration not stated)	inconclusive: 20 µM [inhibitor, partial curve]

SMILES	Potency
CC(/C=C1\SC(=S)N(NS(=O)(=O)c2ccccc2)C1=O)=C\c1ccccc1	inactive
O=C(c1cccc(Cl)c1)C1CCCN(Cc2ccc(N3CCNC3=O)cc2)C1 (configuration not stated)	inactive
O=C(OCn1nnc2ccccc2c1=O)c1ccc2ncsc2c1	inactive
COc1ccc2oc(=O)c(-c3ccccc3C(=O)N3CCOCC3)cc2c1	inconclusive: 31.6 µM [inhibitor, partial curve]
COc1ccc(C2NC(=S)NC3=C2CCc2cc(OC)ccc23)cc1 (configuration not stated)	inconclusive: 35.5 µM [inhibitor, single point]
Cc1ccc2nc(-c3ccc(SCC(=O)O)nc3)[nH]c2c1	inconclusive: 8.91 µM [inhibitor, partial curve]
O=C(O)c1ccccc1NC(=S)NC(NC(=O)c1ccccc1[N+](=O)[O-])C(Cl)(Cl)Cl (configuration not stated)	inconclusive: 25.1 µM [inhibitor, partial curve]
COc1cccc(CNc2ccc(S(N)(=O)=O)cc2)c1OC	inactive
CN(C)CCCOc1ccc(C(C)(C)c2ccccc2)cc1	inconclusive: 35.5 µM [inhibitor, single point]
CC1=C(C#N)C(=O)NC(=O)/C1=C\c1ccc(-c2ccc(C)cc2[N+](=O)[O-])o1	inconclusive: 31.6 µM [inhibitor, single point]
COC(=O)c1ccc2c(c1)C(C)(C)C(/C=C/c1ccccc1O)=[N+]2C	inconclusive: 1.78 µM [inhibitor, partial curve]
CCOC(=O)NNC(=O)CCn1c2c(c3ccccc31)CCCC2	inconclusive: 28.2 µM [inhibitor, single point]
CCOC(=O)c1sc2nc3c(cc2c1N)COC(C)(C)C3	inconclusive: 31.6 µM [inhibitor, partial curve]
CC1(C)CC(=O)C2=C(C1)Nc1cc3c(cc1C2c1ccc2c(c1)OCO2)OCO3 (configuration not stated)	inconclusive: 28.2 µM [inhibitor, partial curve]
O=C(N/N=C/c1ccc(N2CCOCC2)o1)c1cccc(F)c1	inconclusive: 35.5 µM [inhibitor, single point]
C=CCNc1oc(-c2cccc3ccccc23)nc1C#N	inconclusive: 35.5 µM [inhibitor, partial curve]
Cc1cc(/C=C2/NC(=O)N(c3ccccc3)C2=O)c(C)n1C(C)C	active: 22.4 µM
Cn1c(=O)[nH]c(=O)c2c1nc(CN1CCN(c3ccccc3F)CC1)n2CCCc1ccccc1	inactive
Cc1ccsc1/C=C(\C#N)C(=O)NCc1ccco1	inactive
COc1ccc(-c2cc(C(=O)N3CCc4ccccc4C3)no2)cc1OC	inactive
c1ccc(-c2nc3nc4ccccc4nc3n2Cc2ccco2)cc1	inconclusive: 28.2 µM [inhibitor, partial curve]
O=C(c1ccc(F)cc1F)N1CCN(c2ncccn2)CC1	inconclusive: 39.8 µM [inhibitor, single point]
CCNC(=S)NNC(=O)c1cc(-c2ccc(OCC)cc2)nc2ccccc12	inconclusive: 20 µM [inhibitor, partial curve]
Cc1ccc(-c2cc(C(=O)NN=C3CCCC3)c3ccccc3n2)cc1	inconclusive: 28.2 µM [inhibitor, partial curve]

SMILES	Potency
O=C(O)C1C2CCCCC2=C2CCCCC2C1C(=O)O (configuration not stated)	inconclusive: 39.8 µM [inhibitor, single point]
O=C(Nc1ccc(NC(=O)c2cccs2)cc1Cl)c1ccco1	inconclusive: 35.5 µM [inhibitor, single point]
COc1cc2c(cc1OC)CN(C(=O)CSc1nc3[nH]ncc3c(=O)n1-c1ccccc1)CC2	inactive
Cc1cc(N2CCN(c3nc(-c4ccccc4)cs3)CC2)c2ccccc2n1	inconclusive: 35.5 µM [inhibitor, single point]
CCC(C)n1c(-c2cccs2)nc2nc3ccccc3nc21 (configuration not stated)	inconclusive: 28.2 µM [inhibitor, partial curve]
Cc1cc(C(C)(C)C)ccc1OCCN1CCCC1	inconclusive: 25.1 µM [inhibitor, single point]
Cc1cccc(-c2oc(C)c(C)[n+]2[O-])c1	inactive
CCCC1=NN2C(=N)/C(=C\c3cc(C)n(-c4cc(C)cc(C)c4)c3C)C(=O)N=C2S1	inconclusive: 22.4 µM [inhibitor, partial curve]
COc1ccc(NC(=O)CCN2C(=O)[C@@H]3[C@H](C2=O)[C@H]2C=C[C@@H]3C2)cc1	inactive
CCN(CC)c1nc(N)nc(NS(=O)(=O)c2ccc(Cl)cc2)n1	inactive
O=C(NCc1ccccn1)C1C2C=CC(C2)C1C(=O)Nc1ccc(F)cc1 (configuration not stated)	inactive
CN(C)c1ccc(/C=N/N=C2/SC(CC(=O)O)C(=O)N2c2ccc(O)cc2)cc1 (configuration not stated)	inconclusive: 28.2 µM [inhibitor, partial curve]
CN1C(=O)C2(N=c3ccccc3=N2)c2ccccc21	inconclusive: 11.2 µM [inhibitor, partial curve]
Cc1ccc2c(c1)C(O)(c1c(C)[nH]c3ccccc13)C(=O)N2 (configuration not stated)	inconclusive: 39.8 µM [inhibitor, single point]
COc1cccc(C(=O)/C=C/Nc2ccc(S(=O)(=O)Nc3ncccn3)cc2)c1	inconclusive: 35.5 µM [inhibitor, single point]
CC(=O)Nc1nc2n(n1)C(c1ccccc1)C=C(c1ccccc1)N2 (configuration not stated)	inconclusive: 35.5 µM [inhibitor, partial curve]
Cc1ccc(C)c(Cn2nnc3c(=O)[nH]c(C(=O)NCc4ccco4)nc32)c1	inactive
CN(c1ccc(OCc2nnc(-c3ccccc3)o2)cc1)S(=O)(=O)c1ccccc1	inactive
COCCNC(=O)CSC1=N/C(=C/c2ccc(Cl)c(Cl)c2)C(=O)N1c1ccccc1F	inconclusive: 28.2 µM [inhibitor, partial curve]
CC(=O)Nc1nc2c(s1)C(=O)NCC(C)(C)C2	inactive
COc1ccc(NC(=S)SC)cc1OC	inconclusive: 5.62 µM [inhibitor, full curve, poor fit]
CCOC(=O)CSc1nc2c(c(-c3ccc(C)o3)c1C#N)CCCC2	inconclusive: 28.2 µM [inhibitor, partial curve]
Cc1cccc(N(C(=O)Nc2ccc(Cl)cc2)C2=NCC(C)S2)n1 (configuration not stated)	inactive
Cc1ccc(/C=C/C(=O)Nc2cc(S(=O)(=O)N3CCCCCC3)ccc2OCC(F)(F)F)o1	inconclusive: 39.8 µM [inhibitor, single point]
